Article PMC4336329 (PLoS ONE, 2015)
Out of some 310,000 compounds screened, about 2,200 (0.71%) showed an effect of 50% or more. The effect is printed as a negative number. This is one part of the list.

Each compound was assayed against human ether-à-go-go-related gene (hERG) potassium channel (human, UniProt Q12809) (assay: primary screen, population patch clamp on CHO cells stably expressing hERG).
Chain of human ether-à-go-go-related gene (hERG) potassium channel (Q12809 whole entry, looked up): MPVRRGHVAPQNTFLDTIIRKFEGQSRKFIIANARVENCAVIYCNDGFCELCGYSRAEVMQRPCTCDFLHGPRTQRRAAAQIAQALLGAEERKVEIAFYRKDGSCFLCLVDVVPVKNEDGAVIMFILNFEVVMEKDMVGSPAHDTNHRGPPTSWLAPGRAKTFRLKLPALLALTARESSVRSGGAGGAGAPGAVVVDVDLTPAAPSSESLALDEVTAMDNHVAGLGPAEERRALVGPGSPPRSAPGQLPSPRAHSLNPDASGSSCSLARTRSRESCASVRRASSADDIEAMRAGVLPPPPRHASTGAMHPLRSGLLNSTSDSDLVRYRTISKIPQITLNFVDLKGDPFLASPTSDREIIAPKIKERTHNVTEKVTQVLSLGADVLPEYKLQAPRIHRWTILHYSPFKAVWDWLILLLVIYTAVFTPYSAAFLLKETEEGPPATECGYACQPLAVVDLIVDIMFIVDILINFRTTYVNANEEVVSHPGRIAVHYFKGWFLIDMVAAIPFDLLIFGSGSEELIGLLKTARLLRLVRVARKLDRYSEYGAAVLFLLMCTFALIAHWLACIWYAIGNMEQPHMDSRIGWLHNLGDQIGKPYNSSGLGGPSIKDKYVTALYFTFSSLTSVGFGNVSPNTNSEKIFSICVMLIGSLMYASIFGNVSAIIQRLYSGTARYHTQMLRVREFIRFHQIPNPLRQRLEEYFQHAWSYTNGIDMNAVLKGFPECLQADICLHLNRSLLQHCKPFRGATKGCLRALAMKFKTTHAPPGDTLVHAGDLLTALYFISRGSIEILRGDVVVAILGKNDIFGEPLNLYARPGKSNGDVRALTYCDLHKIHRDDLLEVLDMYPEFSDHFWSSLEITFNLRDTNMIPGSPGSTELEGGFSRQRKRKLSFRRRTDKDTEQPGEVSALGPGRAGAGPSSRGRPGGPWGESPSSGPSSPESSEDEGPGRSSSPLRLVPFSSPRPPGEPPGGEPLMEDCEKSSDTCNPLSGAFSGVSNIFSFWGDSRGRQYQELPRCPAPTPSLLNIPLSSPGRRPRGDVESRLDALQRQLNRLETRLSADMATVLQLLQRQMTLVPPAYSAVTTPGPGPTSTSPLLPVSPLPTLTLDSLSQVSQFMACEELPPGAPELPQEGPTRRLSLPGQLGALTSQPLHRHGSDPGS

| Compound | hERG current change (%, negative = inhibition) at 1uM [%] |
| --- | --- |
| CC(=O)Nc1ccc(S(=O)(=O)NCCc2ccc(F)cc2)cc1 | 11 |
| COc1ccccc1CNCC(=O)NCc1ccc(C)cc1.O=C(O)C(=O)O | -4.25 |
| COc1ccc(/C=C2\C(=O)ON=C2c2ccccc2)cc1 | 12.7 |
| Cc1c(C(=O)N2CCOCC2)c(S(=O)(=O)Nc2ccccc2)c(C)n1C | 10.3 |
| O=C1CCCC(=O)C1=Cc1c[nH]c2ccccc12 | 9.37 |
| COc1ccc(/C=N/NC(=S)Nc2ccccc2)cc1COc1ccc(Br)cc1 | 6.21 |
| O=C(c1ccc(S(=O)(=O)Nc2ccccc2Cl)cc1)N1CCOCC1 | 7.94 |
| Cc1cc(NC(=O)COc2cccc(C)c2C)no1 | 7.71 |
| Cc1ccc2c(c1)sc[n+]2Cc1ccccc1.[Br-] | 12.8 |
| COc1ccc(C(=O)N(C(C)C)C(C)C)c(OC)c1 | 13.5 |
| COc1ccc(NC(=O)CN(C)S(=O)(=O)c2ccc3c(c2)CC(C)N3C(C)=O)cc1OC (centres unmarked) | 12.4 |
| CC(C)(C)C1C=C(Sc2ccccc2)C(=O)O1 (centres unmarked) | 3.53 |
| CCN(CCCNC(=O)C1CCC(=O)N1Cc1ccc(F)cc1)c1cccc(C)c1 (centres unmarked) | 5.54 |
| CCOc1ccccc1OCCN1CCC(Cc2ccccc2)CC1.O=C(O)C(=O)O | -53.7 |
| CN(Cc1nc(-c2ccncc2)no1)S(=O)(=O)c1ccc(Cl)cc1 | -17.6 |
| Cc1cccc(C(=O)Nc2cccc(C(=O)N/N=C/c3ccc4c(c3)OCO4)c2)c1 | 4.34 |
| NC(=O)C1CCN(c2ccc(C(F)(F)F)cc2[N+](=O)[O-])CC1 | -5.02 |
| O=C(Nc1cccc(C(F)(F)F)c1)C(SCCO)c1ccccc1 (centres unmarked) | 0.0794 |
| CN(C)C(=O)NC(NC(=S)Nc1ccccc1)C(Cl)(Cl)Cl (centres unmarked) | 11.9 |

| Compound | hERG current change (%, negative = inhibition) at 1uM [%] |
| --- | --- |
| CCOC(=O)N1CCN(C(=O)C2CCN(C(=O)c3cc(OC)cc(OC)c3)CC2)CC1 | 5.7 |
| O=C(Nc1ccc(Cl)cc1F)C1CC1 | 9.74 |
| CC(=O)NC1(C2CCCCC2=O)CCCCC1 (centres unmarked) | 14.1 |
| CS(=O)(=O)N(Cc1ccc(C(=O)NC2CCCCC2O)cc1)c1ccccc1 (centres unmarked) | -3.16 |
| Cc1c(C=O)c2ccccc2n1CCOc1ccccc1 | 14.1 |
| CCN(CCCNC(=O)C1c2ccccc2C(=O)N(CCOC)C1c1ccc(F)cc1)Cc1ccccc1 (centres unmarked) | -9.37 |
| Cc1cc(Br)ccc1OCC(=O)NC1CCCC1 | 11.4 |
| O=C(CSc1nnnn1-c1ccc(O)cc1)Nc1ccc(N2CCOCC2)c(Cl)c1 | 1.14 |
| C[C@H](NC(=O)CCn1nnc2ccccc2c1=O)C(=O)O | 8.19 |
| Cc1cc2nc3n(c2cc1C)CC1CC(C(=O)NCc2ccco2)N(C)C31 (centres unmarked) | -1.1 |
| Cn1c(=O)c2c(ncn2CC(=O)OCC(=O)c2ccc(F)c(F)c2)n(C)c1=O | -3.49 |
| CCN(CC)S(=O)(=O)c1ccc(C(=O)Nc2ccc3c(c2)OCCO3)cc1 | -1.02 |
| O=C(NCC1CCCO1)C(c1cccs1)N(C(=O)c1ccc(CN2CCOCC2)o1)c1ccc(Cl)cc1 (centres unmarked) | 13.7 |
| CC(Sc1ncn[nH]1)C(=O)c1c(N)n(C)c(=O)n(C)c1=O (centres unmarked) | 15.5 |
| O=C(Cc1ccc(F)cc1)N1CCN=C1SCc1ccc([N+](=O)[O-])cc1 | 8.17 |
| COc1ccc(Cl)cc1NC(=O)CCS(=O)(=O)c1ccc(C)cc1 | 13.6 |
| CCN(CC)CCCN1C(=O)C(O)=C(C(=O)c2ccc(C)o2)C1c1ccc(C)o1 (centres unmarked) | 17.4 |
| CCCn1c(=O)c(C(=O)Nc2cccc(C)n2)c(O)c2ccccc21 | 15.7 |
| COc1ccc2c(CC(=O)OCC(=O)Nc3ccc(S(N)(=O)=O)cc3)coc2c1 | 11.3 |

| Compound | hERG current change (%, negative = inhibition) at 1uM [%] |
| --- | --- |
| CCOc1ccc(OCCCC(=O)NCCc2ccc(OC)cc2)cc1 | 21.8 |
| CS(=O)(=O)NCCSc1nnnn1-c1ccccc1 | 14.3 |
| CCOC(=O)c1nn(-c2ccc(F)cc2)c(=O)cc1OCC(=O)Nc1ccc(F)c(F)c1 | 16.9 |
| Cc1ccc(C)c(NC(=O)CSc2nnc(C)c(=O)n2N)c1 | 11.4 |
| CN1CCN(C(=O)c2cccc(S(=O)(=O)N3CCCC3)c2)CC1.Cl | 24.1 |
| Cc1ccc(-c2nn(CC(=O)NCc3ccccn3)c(=O)c3ccccc23)cc1S(=O)(=O)N(C)C | -11.5 |
| O=C(COC(=O)/C=C/c1cccc(F)c1)Nc1ccccc1 | 5.97 |
| Nc1ccc(NC(=O)c2ccc(C(=O)Nc3ccc(N)cc3)cc2)cc1 | 9.92 |
| CC(CCc1ccco1)NC(=O)Cn1ncc2c1-c1ccccc1OC2 (centres unmarked) | 5.18 |
| CN(Cc1cccs1)c1nc(-c2cccnc2)nc2ccccc12 | -4.54 |
| COc1ccc(S(=O)(=O)N(C)Cc2cccs2)cc1Br | 10.4 |
| CC(=O)N1N=C(c2ccncc2)OC12CCCC2 | 14.4 |
| Cc1nc(N2CCN(C(=O)c3ccco3)CC2)c2c3c(sc2n1)CC(C)CC3 (centres unmarked) | 10.1 |
| C#Cc1ccc(C(=O)Nc2cc(C(N)=O)ccc2N2CCOCC2)cc1 | -9.42 |
| CCn1cc(C(=O)OCC(=O)Nc2cccc(S(=O)(=O)N3CCOCC3)c2)c(=O)c2ccc(C)nc21 | 19.1 |
| CCN(Cc1nc2ccccc2c(=O)[nH]1)Cc1nc2ccsc2c(=O)[nH]1 | 8.31 |
| CCCCC(=O)NNC(=S)NC(=O)c1ccc(C)cc1 | 18.1 |
| CN(C(=O)c1cnc(N2CCN(c3ncccn3)CC2)c2ccccc12)c1ccc(Cl)cc1 | 11.7 |
